The whole screen tested about 48,000 compounds, of which about 1,200 (2.5%) were called active. Not shown: some 2% with an inconclusive outcome.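 The calls were made as follows: active = activation of at least 60% and not above a set upper limit (about 1 call in 100 departs from these limits); inconclusive = activation of 40% to 60%, or above that upper limit; inactive = activation under 40%.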 The list shows a part of the results.
target: Probable G-protein coupled receptor 32 (Homo sapiens) (UniProt O75388); assay: qHTS for Agonists of Human Resolvin D1 Receptor DRV1; settings: CHO-K1 GPR32 beta-arrestin PathHunter luminescence, 90 min; at 76.9 µM; active compounds read high; zero percent set by DMSO-only wells; also: 0% is about no effect
Sequence of UniProt O75388 (O75388 whole entry, looked up): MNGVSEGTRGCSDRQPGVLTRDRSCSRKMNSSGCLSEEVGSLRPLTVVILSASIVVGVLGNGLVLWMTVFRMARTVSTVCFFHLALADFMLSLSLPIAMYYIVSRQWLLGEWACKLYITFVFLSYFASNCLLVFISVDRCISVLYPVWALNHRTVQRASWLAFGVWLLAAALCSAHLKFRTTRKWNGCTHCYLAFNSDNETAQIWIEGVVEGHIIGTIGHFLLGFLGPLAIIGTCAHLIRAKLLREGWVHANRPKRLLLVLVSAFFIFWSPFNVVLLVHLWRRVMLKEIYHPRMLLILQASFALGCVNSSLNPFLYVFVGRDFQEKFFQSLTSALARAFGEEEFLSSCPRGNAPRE
Summary of the method: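 CHO-K1 cells stably expressing ProLink-tagged GPR32 and Enzyme Activator-tagged beta-arrestin were seeded at 2,500 cells/well overnight, exposed to compounds for 90 min at 37 °C, then read by beta-Gal complementation chemiluminescence after 1 h detection reagent.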

Row | SMILES | activation
1 | CCOC(=O)c1c(Nc2ccc(OC)cc2)nnc(-c2ccccc2)c1-c1ccccc1 | inactive: -19.6%
2 | CC(=O)c1ccc(N2CCN(C(=O)C3CCN(S(=O)(=O)c4cn(C)cn4)CC3)CC2)cc1 | inactive: -12.2%
3 | Cn1c(=O)c2sccc2n2c(CCC(=O)NCc3ccc(Cl)cc3)nnc12 | inactive: -18.1%
4 | CCCOc1ccc(-c2nc(SCC(=O)c3ccc(Cl)cc3)n[nH]2)cc1 | inactive: 46.1%
5 | Cc1ccc(Cl)cc1Nc1nn2c(=O)c3ccc(C(=O)NCc4ccc(F)cc4)cc3nc2s1 | inactive: 23%
6 | CCOc1ccc(CNC(=O)Cc2ccc(NC(=O)N3CCSc4ncccc43)cc2)cc1 | inactive: -1.58%
7 | Cc1cccn2c(=O)c(C(=O)NCc3cccc(F)c3)cnc12 | inactive: -12.8%
8 | Cc1cccc(-c2nc3scc(CCNS(=O)(=O)c4ccc5c(c4)OCCO5)n3n2)c1 | inactive: -0.826%
9 | COc1ccc(Nc2c(-c3cccc(O)c3)nc3cnccn23)cc1 | inactive: -19.6%
10 | CCOC(=O)N1CCc2c(sc3c2c(=O)n(-c2ccc(Cl)cc2)c(=O)n3CC(C)C)C1 | inactive: -4.2%
11 | CN(C)CCN(Cc1ccccc1)c1ccccn1 | inactive: -3.99%
12 | COc1ccc(-c2nc3cc(NC(=O)CSc4ccc(C)cc4)ccc3o2)cc1 | inactive: 42.6%
13 | COc1ccccc1-c1cc(C(=O)NCc2ccccc2)c2c(-c3ccc(C)cc3)[nH]nc2n1 | inactive: -10.5%
14 | COc1ccc(NC(=O)c2oc3ccccc3c2NC(=O)Cc2coc3c(C)c(C)ccc23)cc1 | inactive: -13.4%
15 | Cc1ccc(S(=O)(=O)c2nc(S(=O)(=O)c3ccccc3)sc2NCCCOC(C)C)cc1 | inactive: -22.6%
16 | CCc1ccc(NC(=O)Cn2ccn(-c3ccc(C)c(C)c3)c(=O)c2=O)cc1 | inactive: 2.37%
17 | O=C(CSc1n[nH]c(-c2ccc(F)cc2)n1)NCCc1ccccc1 | inactive: -0.86%
18 | Cc1c(Cl)cccc1NC(=O)CCS(=O)(=O)c1ccc2c(c1)CC(=O)N2C | inactive: 28.4%
19 | CCOc1ccc(NC(=O)/C(C#N)=C\c2ccc(-c3ccc(Cl)cc3)o2)cc1 | inactive: 9.46%

Row | SMILES | activation
20 | COc1cccc(NC(=O)Cn2cc(C(=O)c3ccc(C)cc3)c(=O)c3cc(OC)ccc32)c1 | inactive: 2.85%
21 | Cc1ccccc1NC(=O)Cn1c(=O)n(Cc2ccc3c(c2)OCO3)c(=O)c2ccccc21 | inactive: -18.6%
22 | Cc1ccc(S(=O)(=O)NCCc2cn3ccsc3n2)c(C)c1 | inactive: -14.8%
23 | CCN(CC)CCNC(=O)c1c2c(nc3ccccc13)C(=O)N(C1CCCCC1)C2 | inactive: -1.34%
24 | COc1ccc(CNC(=O)c2ccc3c(c2)N(Cc2c(F)cccc2Cl)C(=O)CS3)cc1 | inactive: -12%
25 | CCOC(=O)CSc1nc2ccc(NC(=O)c3cccc(F)c3)cc2s1 | active: 72.6%
26 | O=C(CCn1cccn1)Nc1ccc(Br)cc1F | inactive: -7.8%
27 | O=C(COCc1cc(-c2ccc(F)cc2)on1)Nc1cc(F)ccc1F | inactive: -5.04%
28 | CCOc1ccc(NS(=O)(=O)c2ccc3[nH]c4c(c3c2)CCCCC4)cc1 | active: 65.6%
29 | O=S(=O)(NCc1nc2cccnc2n1Cc1ccccc1Cl)c1ccc2c(c1)CCCC2 | inactive: -19.6%
30 | Cc1cccc(-c2nc3c4ccccc4nc(NCCc4ccccc4)n3n2)c1 | inactive: -15.2%
31 | Nc1ccn([C@@H]2O[C@H](CO)[C@@H](O)C2(F)F)c(=O)n1 | inactive: -12.4%
32 | COc1cccc(NC(=O)CN(CCc2ccccc2)S(=O)(=O)c2ccc(Cl)cc2)c1 | inactive: -5.94%
33 | Cc1nc2ccccc2n1CCc1nc2c3ccccc3nc(SCc3ccc(C#N)cc3)n2n1 | inactive: -1.48%
34 | O=c1c(NCc2cccs2)nccn1-c1ccc(F)cc1 | inactive: 2.59%
35 | CCN(CC)CCCNC(=O)Cc1csc2nc(-c3ccc(Cl)cc3)cn12 | inactive: -6.14%
36 | CCOc1ccccc1NS(=O)(=O)c1ccc2c(c1)oc(=O)n2C | inactive: -20.3%
37 | Cc1cccc(CCNC(=O)c2cc3c(=O)n(C)c4ccccc4c3n2C)c1 | inactive: -2.73%
38 | O=C(CN1C(=O)CCn2nc(-c3ccccc3)cc21)NCc1ccc(Cl)cc1 | inactive: -16.4%

Row | SMILES | activation
39 | Cc1cc2c(n1-c1ccc(C(=O)NCc3ccccc3Cl)cc1)CCCC2 | inactive: -14.3%
40 | COc1ccccc1N1CCN(C(=O)c2c(C)oc3ncn(C)c(=O)c23)CC1 | inactive: 1.37%
41 | O=C(CCSCc1ccccc1Cl)NCc1ccc(F)cc1Cl | inactive: -24.6%
42 | CCc1cc2c(cc3c(=O)n(CCCC(=O)NCc4cccc(Cl)c4)ncn32)s1 | inactive: 1.15%
43 | Cc1cccc(N2CCN(C(=O)c3noc4c3COc3ccc(C)cc3-4)CC2C)c1 (stereo unspecified) | inactive: 39.9%
44 | COc1ccc(NC(=O)NC2COc3ccccc3C2)cc1Cl (stereo unspecified) | inactive: -6.66%
45 | Cc1ccc(CN2C(=O)c3ccccc3CC2(C)C(=O)NC2CCCCC2)cc1 (stereo unspecified) | inactive: -8.48%
46 | CC(C)c1cnc2c(c1SCC(=O)NCc1ccccc1Cl)c(=O)n(C)c(=O)n2C | inactive: -19.9%
47 | O=C(c1ccc2c(c1)N(Cc1cccc(F)c1)C(=O)c1ccccc1S2)N1CCCC1 | inactive: -12.5%
48 | COc1ccc(C(CC(=O)Nc2ccc(C(C)=O)cc2)N2Cc3ccccc3C2=O)cc1 (stereo unspecified) | inactive: -20.3%
49 | Cc1cccc2c1-c1sc(C(=O)N(C)c3cccc(Cl)c3)cc1CO2 | inactive: -39.6%
50 | CSc1ccc(CCNC(=O)CCc2c(C)nc3ncnn3c2C)cc1 | inactive: 1.71%
51 | CCOc1ccccc1C(=O)NC1(C(F)(F)F)C(=O)Nc2c1c(=O)[nH]c(=O)n2-c1ccc(F)cc1 (stereo unspecified) | inactive: -5.08%
52 | Cn1nnnc1SCCNCc1cc(Br)ccc1OCc1ccccc1Cl | active: 75.1%
53 | CN1C(=O)CC(c2ccccc2)C1=O (stereo unspecified) | inactive: -16.8%
54 | COc1ccccc1N1CCN(CCN(C(=O)C2CCCCC2)c2ccccn2)CC1 | inactive: -16.9%
55 | COC(=O)c1c(-c2cccs2)csc1NC(=O)COc1ccc(C)cc1 | inactive: -4.74%
56 | COc1cc(NC(=O)CSc2ccc(-c3ccccn3)nn2)cc(OC)c1 | inactive: -13.1%
